The other results are listed elsewhere or left out. At the low end of the ranking, values are background and their order means little.

This assay addresses T1, GST-Rok-C97-191 (UniProt O34857).
T1 sequence: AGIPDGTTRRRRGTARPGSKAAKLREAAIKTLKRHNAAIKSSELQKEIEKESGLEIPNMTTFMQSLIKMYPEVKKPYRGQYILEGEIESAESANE
The assay can be described thus: protein binding microarray.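 Also: rank score from −0.5 (least bound) to 0.5 (best bound).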 Conditions: Rok is a gene silencer of Bacillus subtilis; high values mean tight binding; most listed sequences are background and not binding sites; double strand, one strand shown.
ACCACTCT displayed a binding signal of -0.0505 E-score.
GCATCCCA gave a binding signal of -0.221 E-score.
Consider AGCCCAGG, for which the binding signal is -0.211 E-score.
Then GCCGCCCC, with -0.365 E-score.
CAAAAGGC showed a binding signal of -0.159 E-score.
The sequence GCTATGCA yielded a binding signal of 0.103 E-score.
CCCACTAA gave a binding signal of 0.0279 E-score.
For the sequence AAGGAAAA, the binding signal is -0.134 E-score.
Under ACCTCTAC stands 0.124 E-score.
GCCAAGGC gave a binding signal of -0.387 E-score.
In turn, CATAAACG gave a binding signal of 0.00369 E-score.
Then ATTGTGAC, with -0.0654 E-score; and ACAAATAA, with 0.246 E-score.
Under CCTATCAA stands 0.00333 E-score.
The sequence GATGTCGC displayed a binding signal of -0.118 E-score.
Sequence GGGTCAAC came in with a binding signal of -0.214 E-score.
As to CTACTCCA, the binding signal turned out to be 0.141 E-score.
CGACGAGC gave a binding signal of -0.101 E-score.
AAGAGCTT registered a binding signal of -0.0675 E-score.
As for CGTGGCAC, the binding signal is -0.208 E-score.
Sequence ATGTCTAC returned a binding signal of -0.0174 E-score.
In the case of CATATCTC, the binding signal turned out to be 0.0436 E-score.
Turning to CCCGCCAG, the binding signal was -0.301 E-score.
The sequence AGAGGGGG showed a binding signal of -0.305 E-score.
Take GATCCCTA: the binding signal came out at 0.0107 E-score.
ATATGCAT returned a binding signal of 0.151 E-score.
As to ATGAGAGC, the binding signal was -0.0638 E-score.
ACCATCGG: the binding signal came to 0.0593 E-score.
Sequence ACTACGAT returned a binding signal of 0.362 E-score.
As to GGACAGCC, the binding signal is -0.25 E-score.
On to GAAGAATA, for which the binding signal worked out at 0.183 E-score.
ACTGTGAC yielded a binding signal of 0.0996 E-score.
ACAAGACG: the binding signal was -0.0474 E-score.
In turn, ACGCCGTA returned a binding signal of -0.129 E-score.
In turn, AATATGGT displayed a binding signal of 0.208 E-score.
The sequence AGTATGTA showed a binding signal of 0.294 E-score.
Sequence TATTCAAA came in with a binding signal of 0.0841 E-score.
Consider CGACTCCA, for which the binding signal was -0.0428 E-score.
Under ACCGGAAT stands 0.161 E-score; under CCCGGAGA, -0.132 E-score.
On to GCTATCTA, for which the binding signal stood at 0.333 E-score.
The sequence TAAACAGA returned a binding signal of -0.154 E-score.
For the sequence AGAGTCGA, the binding signal is -0.19 E-score.
For the sequence CCTCGGGC, the binding signal is -0.153 E-score.
In turn, TACGGTCA gave a binding signal of 0.152 E-score.
The sequence AGTCGTAC came in with a binding signal of 0.108 E-score.
As for ACCGGTGC, the binding signal was -0.35 E-score.
Sequence GCGTACGA came in with a binding signal of 0.0687 E-score.
Under ACTATTGG stands 0.194 E-score; under CGGGCGCC, -0.267 E-score.
Sequence TAACATAA gave a binding signal of 0.0145 E-score.
For the sequence CCAGCAAA, the binding signal was -0.315 E-score.
Under CCTTATCA stands 0.0932 E-score.
For CACCAATA, the binding signal came out at 0.124 E-score.
CCACACTA: the binding signal amounted to 0.248 E-score.
CCTAGCAG registered a binding signal of -0.174 E-score.
Under ATAATCTA stands 0.289 E-score; under GTACAACA, 0.0783 E-score; under CAGCATTA, 0.0741 E-score.
As for ATTTCACC, the binding signal stood at 0.1 E-score.
Take GCAGGAAC: the binding signal was -0.0927 E-score.
Regarding AAAGTGTC, the binding signal was -0.00313 E-score.
As to ACGTTACT, the binding signal came to 0.0811 E-score.
Consider CTATACTA, for which the binding signal is 0.301 E-score.
Under TATGAACA stands 0.0539 E-score.
The sequence CGCGGCTC registered a binding signal of -0.318 E-score.
Then CCTGTTCG, with -0.0726 E-score; and AAGAGATG, with 0.0244 E-score.
Then GGCAAGCC, with -0.208 E-score; and GGTCGCTA, with -0.0447 E-score.
For the sequence GGTTACAA, the binding signal was 0.162 E-score.
Under AGCTTAAA stands 0.065 E-score; under GACGCAGA, -0.227 E-score.
Under ACAACACC stands -0.0544 E-score; under CACTGTTA, 0.19 E-score.
Sequence CCCTGTCG yielded a binding signal of -0.114 E-score.
The sequence GACCGCAA showed a binding signal of 0.0465 E-score.
On to CATACCAA, for which the binding signal was found to be 0.212 E-score.
With CCATGCCA, the binding signal is -0.0511 E-score.
Regarding ACAAGAGC, the binding signal is -0.183 E-score.
Regarding CTATGTTA, the binding signal was 0.256 E-score.
GACTAGAC: the binding signal was -0.197 E-score.
Then AGTCATCC, with -0.118 E-score.
As to CAGTGTGG, the binding signal is -0.258 E-score.
Take GATGCTTA: the binding signal came out at 0.0551 E-score.
CAGTGGCC gave a binding signal of -0.131 E-score.
Under AGGCGGGA stands -0.114 E-score.
Then CGGATCTC, with -0.0038 E-score; and CGCCCTCC, with -0.427 E-score.
CAAAGTAA registered a binding signal of 0.219 E-score.
Sequence ACCGGCCT came in with a binding signal of -0.0364 E-score.
As for CCTAATTA, the binding signal turned out to be 0.28 E-score.
In turn, CCCCCCCA had a binding signal of -0.302 E-score.
Under CTGGCCCC stands -0.197 E-score.
Then CCGTCAAC, with -0.116 E-score; and GTGCAAAA, with 0.0465 E-score; and ACCTTGCA, with -0.00674 E-score.
On to GCCAAACA, for which the binding signal came to 0.164 E-score.
For the sequence ACAGGTAC, the binding signal was 0.095 E-score.
The sequence GTTGTCCA yielded a binding signal of -0.123 E-score.
ACTTAGAT yielded a binding signal of 0.255 E-score.
Turning to AGTCTATA, the binding signal was 0.218 E-score.
Sequence TATAGCAA yielded a binding signal of 0.162 E-score.
Then GTTGGTGA, with -0.0888 E-score.
Sequence TCGTCTAA yielded a binding signal of -0.15 E-score.
In the case of ACGGACGC, the binding signal was -0.335 E-score.
On to TCCACAGA, for which the binding signal is -0.0457 E-score.
In turn, CAGGGGCG registered a binding signal of -0.376 E-score.
AGCTTCAA gave a binding signal of -0.0507 E-score.
For CCAGGGAA, the binding signal is -0.173 E-score.
GAGCGGAA registered a binding signal of -0.281 E-score.
On to CCCGATAG, for which the binding signal was found to be 0.127 E-score.
In the case of CCGTGAGC, the binding signal is -0.253 E-score.
CCCTCAAG came in with a binding signal of -0.306 E-score.
Then CCCAGTTA, with -0.234 E-score; and AACGTTCT, with 0.194 E-score; and CGCCCGCA, with -0.314 E-score.
AACGGGCT returned a binding signal of -0.138 E-score.
ACGGCTCA displayed a binding signal of -0.0392 E-score.
On to GTACTCAC, for which the binding signal was -0.11 E-score.
Take CGTACGGC: the binding signal amounted to 0.0464 E-score.
Under GGGATCAC stands -0.212 E-score.
Under ACGGCATC stands -0.0706 E-score; under AAAGTTCC, 0.0995 E-score.
Sequence ATTCCGGG displayed a binding signal of -0.0619 E-score.
For ACTATATC, the binding signal is 0.284 E-score.
Turning to ATGGAATA, the binding signal stood at 0.0421 E-score.
Under AAAAATCT stands -0.0876 E-score.
Sequence AAGTGCAC yielded a binding signal of 0.0765 E-score.
The sequence AGTCGCCA returned a binding signal of -0.171 E-score.
In turn, CGTTGTTC registered a binding signal of 0.00358 E-score.
Consider CGTAGGAC, for which the binding signal is -0.193 E-score.
Take AGACAAAC: the binding signal worked out at 0.0858 E-score.
AAGACGCG registered a binding signal of -0.142 E-score.
GGGAGAAC: the binding signal was -0.124 E-score.
ACGTTGCA returned a binding signal of -0.0279 E-score.
As for GCCTCGAC, the binding signal was -0.155 E-score.
As for ATAACTTA, the binding signal was 0.292 E-score.
Then ATACAAAG, with 0.17 E-score.
Under CTACAGCC stands 0.138 E-score; under AGAGCGCA, -0.111 E-score; under GCACTGCC, -0.181 E-score.
AGCTTATC showed a binding signal of -0.00797 E-score.
AATCGTAA had a binding signal of 0.0838 E-score.
In turn, TGAGATAA came in with a binding signal of 0.0668 E-score.
ACCTCTCA: the binding signal was -0.104 E-score.
For the sequence CACCGACA, the binding signal was -0.175 E-score.
In turn, CGACTTAA gave a binding signal of 0.0324 E-score.
On to CCCACCTC, for which the binding signal is -0.206 E-score.
Under CCCCACAC stands -0.197 E-score; under ATTGGTTA, 0.191 E-score.
In the case of ATCCGATC, the binding signal was determined as 0.0714 E-score.
CATCTTAG showed a binding signal of 0.0146 E-score.
CCAACTAC showed a binding signal of 0.199 E-score.
GGGTCAGA had a binding signal of 0.00669 E-score.
Then AGATACAT, with 0.302 E-score; and ACCCGCGA, with -0.0898 E-score.
ATACGTGC displayed a binding signal of 0.115 E-score.
Take CCGAATCC: the binding signal is -0.176 E-score.
The sequence CCGGCTTC displayed a binding signal of -0.0836 E-score.
CACCCGCC returned a binding signal of -0.206 E-score.
In the case of CCGTCTGA, the binding signal was -0.11 E-score.
As to CGCCATGC, the binding signal is -0.166 E-score.
For AGTGAACA, the binding signal is -0.102 E-score.
The sequence AGCATAAG gave a binding signal of -0.133 E-score.
As to AAAATGCT, the binding signal is 0.113 E-score.
Then AGCACGGG, with -0.186 E-score; and GGCGTTCA, with -0.0817 E-score.
Then GCGCATCA, with -0.0275 E-score; and CGCGTCTA, with -0.0422 E-score; and AGCTTTGG, with -0.182 E-score.
Then ATATTCAC, with 0.183 E-score.

These data come from article PMC6212790.
